104 sequences from the supplement of paper PMC12067230 can be followed below.

The data scatter; read single values as rough.
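Also: [psi-pin-] Saccharomyces cerevisiae expressing SupN fusions, induced by 100 µM Cu2SO4, selected 7 d at 30 °C without adenine and uracil, scored by deep sequencing of output versus input.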

The nature of one series: amyloid nucleation score relative to library mode (yeast Sup35 reporter selection) (log enrichment difference); higher = more amyloid nucleation; sequences are the first 22 residues of the Bri2 peptide extended by up to 12 random residues. Particulars: random library (experiment): 1;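 active = nucleation score significantly above 0 at FDR 0.05; inactive = not significantly above 0 or absent from output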.
EASNCFAIRHFENKFAVETLICMCRGWLRTTADA: the amyloid nucleation score result is “inactive”.

With EASNCFAIRHFENKFAVETLICMCRLM, the amyloid nucleation score turned out to be 8.24.

In turn, EASNCFAIRHFENKFAVETLICMCRLVKVLMCAQ registered an amyloid nucleation score of 1.29.

Regarding EASNCFAIRHFENKFAVETLICMCRLYCSWGRTR, the amyloid nucleation score result is “inactive”.

Turning to EASNCFAIRHFENKFAVETLICMCS, the amyloid nucleation score result was “inactive”.

EASNCFAIRHFENKFAVETLICMCSGRVRAPATE had an amyloid nucleation score of 5.35.

The sequence EASNCFAIRHFENKFAVETLICMCSHRESREH gave an amyloid nucleation score of 8.42.

Turning to EASNCFAIRHFENKFAVETLICMCSYVYSSFNAS, the amyloid nucleation score came out at 0.895.

As for EASNCFAIRHFENKFAVETLICMCVLMYTFAMGW, the amyloid nucleation score result is “inactive”.

EASNCFAIRHFENKFAVETLICMCVSYNASNARF showed an amyloid nucleation score of 7.56.

With EASNCFAIRHFENKFAVETLICMCWASCGGYL, the amyloid nucleation score result was “inactive”.

On to EASNCFAIRHFENKFAVETLICMCYG, for which the amyloid nucleation score result was “inactive”.

Consider EASNCFAIRHFENKFAVETLICMD, for which the amyloid nucleation score entry is “inactive”.

For EASNCFAIRHFENKFAVETLICMDAVSKWAVH, the amyloid nucleation score entry is “inactive”.

Sequence EASNCFAIRHFENKFAVETLICMDEYGSLYRACR displayed an amyloid nucleation score of 2.53.

With EASNCFAIRHFENKFAVETLICMDFGGKTEECRQ, the amyloid nucleation score result was “inactive”.

The sequence EASNCFAIRHFENKFAVETLICMDGRWVVGVNGT gave an amyloid nucleation score of 5.24.

As to EASNCFAIRHFENKFAVETLICMDHNWKS, the amyloid nucleation score entry was “inactive”.

Regarding EASNCFAIRHFENKFAVETLICMDMHVHGRMRLD, the amyloid nucleation score entry is “inactive”.

As for EASNCFAIRHFENKFAVETLICMDPTVRS, the amyloid nucleation score entry is “inactive”.

As to EASNCFAIRHFENKFAVETLICMDRGDTALSDRP, the amyloid nucleation score is -0.0385.

Regarding EASNCFAIRHFENKFAVETLICMDRPR, the amyloid nucleation score was -0.129.

Turning to EASNCFAIRHFENKFAVETLICMDSCMANCVSLA, the amyloid nucleation score stood at 3.81.

Take EASNCFAIRHFENKFAVETLICMDSSWPYSLVRK: the amyloid nucleation score was 2.33.

Turning to EASNCFAIRHFENKFAVETLICMDVH, the amyloid nucleation score is -0.309.

In the case of EASNCFAIRHFENKFAVETLICMEDEGSTVIAYG, the amyloid nucleation score result was “inactive”.

Consider EASNCFAIRHFENKFAVETLICMEEVWEPKAWAA, for which the amyloid nucleation score entry was “inactive”.

Sequence EASNCFAIRHFENKFAVETLICMEKASVSSVFWP came in with an amyloid nucleation score of 2.48.

EASNCFAIRHFENKFAVETLICMEMPREWGRLSF had an amyloid nucleation score of 3.85.

EASNCFAIRHFENKFAVETLICMENSSCVECCGG: the amyloid nucleation score result was “inactive”.

Turning to EASNCFAIRHFENKFAVETLICMEWRGVVFRMHP, the amyloid nucleation score entry is “inactive”.

For the sequence EASNCFAIRHFENKFAVETLICMEYARCRTRVV, the amyloid nucleation score result was “inactive”.

For EASNCFAIRHFENKFAVETLICMEYVPRPLIQIQ, the amyloid nucleation score is -0.111.

With EASNCFAIRHFENKFAVETLICMFAYSNDRLMR, the amyloid nucleation score entry was “inactive”.

Take EASNCFAIRHFENKFAVETLICMFG: the amyloid nucleation score was found to be 7.05.

On to EASNCFAIRHFENKFAVETLICMFLVHL, for which the amyloid nucleation score entry was “inactive”.

Take EASNCFAIRHFENKFAVETLICMFSRGYQLVIAW: the amyloid nucleation score entry is “inactive”.

Take EASNCFAIRHFENKFAVETLICMFTVNN: the amyloid nucleation score is 6.8.

In the case of EASNCFAIRHFENKFAVETLICMFWIATRWQANG, the amyloid nucleation score result is “inactive”.

The same series, now with this note: random library (experiment): 2.
Take EASNCFAIRHFENKFAVETLICMCRTCLIRSCCV: the amyloid nucleation score result was “inactive”.

Turning to EASNCFAIRHFENKFAVETLICMCSESIL, the amyloid nucleation score amounted to 3.18.

EASNCFAIRHFENKFAVETLICMCVGVLYWTCHP returned an amyloid nucleation score of 2.34.

EASNCFAIRHFENKFAVETLICMCY: the amyloid nucleation score entry is “inactive”.

For EASNCFAIRHFENKFAVETLICMDADPHIMASDN, the amyloid nucleation score entry is “inactive”.

As to EASNCFAIRHFENKFAVETLICMDAYTCVRAMPD, the amyloid nucleation score entry is “inactive”.

On to EASNCFAIRHFENKFAVETLICMDDTFSDSSRAM, for which the amyloid nucleation score entry was “inactive”.

As for EASNCFAIRHFENKFAVETLICMDK, the amyloid nucleation score entry was “inactive”.

As for EASNCFAIRHFENKFAVETLICMDLLKRLYRTCE, the amyloid nucleation score entry was “inactive”.

On to EASNCFAIRHFENKFAVETLICMDNCDRVHCGRA, for which the amyloid nucleation score entry is “inactive”.

EASNCFAIRHFENKFAVETLICMDSICNWDYIMH showed an amyloid nucleation score of 3.63.

With EASNCFAIRHFENKFAVETLICMDSWGMYVRRYM, the amyloid nucleation score entry was “inactive”.

For EASNCFAIRHFENKFAVETLICMDVCLWFRWYVS, the amyloid nucleation score result was “inactive”.

Regarding EASNCFAIRHFENKFAVETLICMDYILTDRVRSV, the amyloid nucleation score result is “inactive”.

For the sequence EASNCFAIRHFENKFAVETLICME, the amyloid nucleation score entry is “inactive”.

On to EASNCFAIRHFENKFAVETLICMEERARPREDEL, for which the amyloid nucleation score entry is “inactive”.

As for EASNCFAIRHFENKFAVETLICMEIYCLSLYFEA, the amyloid nucleation score result was “inactive”.

For the sequence EASNCFAIRHFENKFAVETLICMEMMVFWTISFV, the amyloid nucleation score entry is “inactive”.

Take EASNCFAIRHFENKFAVETLICMENVSIY: the amyloid nucleation score result is “inactive”.

EASNCFAIRHFENKFAVETLICMESMKVGILDQS: the amyloid nucleation score entry was “inactive”.

With EASNCFAIRHFENKFAVETLICMEVIFRSFISLV, the amyloid nucleation score result is “inactive”.

As for EASNCFAIRHFENKFAVETLICMEYLCSNSEAKH, the amyloid nucleation score is 1.71.

In the case of EASNCFAIRHFENKFAVETLICMFCCLGYRCLLI, the amyloid nucleation score entry was “inactive”.

As for EASNCFAIRHFENKFAVETLICMFCIGLASPLWL, the amyloid nucleation score result was “inactive”.

For the sequence EASNCFAIRHFENKFAVETLICMFESGIFVVLCS, the amyloid nucleation score entry is “inactive”.

On to EASNCFAIRHFENKFAVETLICMFFMVSLGTVAM, for which the amyloid nucleation score result was “inactive”.

Sequence EASNCFAIRHFENKFAVETLICMFFNFDDFVASS displayed an amyloid nucleation score of 5.3.

In the case of EASNCFAIRHFENKFAVETLICMFIAYL, the amyloid nucleation score result was “inactive”.

The sequence EASNCFAIRHFENKFAVETLICMFKLVTKSYIKW returned an amyloid nucleation score of 0.439.

As for EASNCFAIRHFENKFAVETLICMFLG, the amyloid nucleation score was 4.54.

As for EASNCFAIRHFENKFAVETLICMFNQNV, the amyloid nucleation score was found to be 5.55.

In the case of EASNCFAIRHFENKFAVETLICMFRTPSLHLLFS, the amyloid nucleation score result is “inactive”.

With EASNCFAIRHFENKFAVETLICMFSIIAG, the amyloid nucleation score entry is “inactive”.

EASNCFAIRHFENKFAVETLICMFSNCSFFCVKL: the amyloid nucleation score amounted to 0.741.

Consider EASNCFAIRHFENKFAVETLICMFTVSCLFFHIS, for which the amyloid nucleation score entry is “inactive”.

Sequence EASNCFAIRHFENKFAVETLICMFVSKWASKYEL gave an amyloid nucleation score of -0.077.

Turning to EASNCFAIRHFENKFAVETLICMFWFDTLCCMWK, the amyloid nucleation score was 1.51.

Take EASNCFAIRHFENKFAVETLICMFWFYWTMFFES: the amyloid nucleation score was -0.191.

Staying with this series, now noted: random library (experiment): 3.
Turning to EASNCFAIRHFENKFAVETLICMCRMRSHNYSET, the amyloid nucleation score stood at 5.11.

Take EASNCFAIRHFENKFAVETLICMCRYWSTGYRG: the amyloid nucleation score entry was “inactive”.

For the sequence EASNCFAIRHFENKFAVETLICMCSD, the amyloid nucleation score came out at 7.32.

The sequence EASNCFAIRHFENKFAVETLICMCVNAREGRPFS gave an amyloid nucleation score of 5.99.

For the sequence EASNCFAIRHFENKFAVETLICMCVYWRAQYGWS, the amyloid nucleation score result was “inactive”.

EASNCFAIRHFENKFAVETLICMCYGWCLVPGSG: the amyloid nucleation score result is “inactive”.

EASNCFAIRHFENKFAVETLICMDADLCTKGGQA: the amyloid nucleation score result was “inactive”.

Turning to EASNCFAIRHFENKFAVETLICMDEVAGRTGLPP, the amyloid nucleation score result is “inactive”.

As for EASNCFAIRHFENKFAVETLICMDLSNTSSVLTV, the amyloid nucleation score entry is “inactive”.

In the case of EASNCFAIRHFENKFAVETLICMDQCWKESGAWQ, the amyloid nucleation score turned out to be 1.37.

EASNCFAIRHFENKFAVETLICMDSV: the amyloid nucleation score entry was “inactive”.

EASNCFAIRHFENKFAVETLICMDV: the amyloid nucleation score entry was “inactive”.

As to EASNCFAIRHFENKFAVETLICMDVCTQRRSLM, the amyloid nucleation score was found to be 2.65.

For EASNCFAIRHFENKFAVETLICMDVLLP, the amyloid nucleation score result is “inactive”.

EASNCFAIRHFENKFAVETLICMDWQHPV: the amyloid nucleation score entry is “inactive”.

As to EASNCFAIRHFENKFAVETLICMEDGRQWSGIVR, the amyloid nucleation score result was “inactive”.

The sequence EASNCFAIRHFENKFAVETLICMEGPLFSGWFRR showed an amyloid nucleation score of 6.86.

Consider EASNCFAIRHFENKFAVETLICMEGQKAYFRSMC, for which the amyloid nucleation score worked out at 0.49.

In turn, EASNCFAIRHFENKFAVETLICMELTLDLFLDRQ returned an amyloid nucleation score of 1.19.

Take EASNCFAIRHFENKFAVETLICMEPERMLLRDDG: the amyloid nucleation score result was “inactive”.

The sequence EASNCFAIRHFENKFAVETLICMEQAEPRRVKRS had an amyloid nucleation score of 2.4.

EASNCFAIRHFENKFAVETLICMEVQSSLFRKVW: the amyloid nucleation score entry is “inactive”.

Turning to EASNCFAIRHFENKFAVETLICMFDASYLMSNLM, the amyloid nucleation score entry was “inactive”.

On to EASNCFAIRHFENKFAVETLICMFGFWFRCSVMV, for which the amyloid nucleation score entry is “inactive”.

Sequence EASNCFAIRHFENKFAVETLICMFKVGIYPFQND gave an amyloid nucleation score of 0.426.

With EASNCFAIRHFENKFAVETLICMFSAIVADRFLG, the amyloid nucleation score entry was “inactive”.

Regarding EASNCFAIRHFENKFAVETLICMFWWD, the amyloid nucleation score result is “inactive”.
